Measured values published in PubChem BioAssay AID624417 (National Center for Advancing Translational Sciences (NCATS), 2012).
About 6,400 (1.6%) of roughly 410,000 compounds were called active. Inconclusive results, whose numbers are uncertain, are shown with a selection of clear calls. The call rests on the fitted dose curve; in most records, active means well fitted inhibition curve with a large enough effect; inconclusive means small, poorly fitted or top-dose-only effect; inactive means no such curve, though single readings can be large or run the other way. A potency beside an inconclusive call is a rough fit, not a confirmed value.

These molecules were tested against Glucagon-like peptide 1 receptor (Homo sapiens) (UniProt P43220) (assay: qHTS of GLP-1 Receptor Inverse Agonists (Inhibition Mode)). Settings: HEK293 GLP-1R CRE-luciferase, luminescence, 24 h, GLP-1R form is constitutively active; series mostly up to 38.3 µM.
In short: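 Luminescence readout: a drop in cAMP-driven luciferase signal flags inverse agonism at a constitutively active GLP-1R stably expressed in HEK293. Compound exposure lasted 24 hr at 37 deg C, 5% CO2.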
Further: nearly all actives have a fitted effect of over 55% in size.
Potency means the concentration at half of the fitted maximal effect; tags describe the fitted curve by direction and shape.

UniProt P43220, sequence (P43220 whole entry, looked up): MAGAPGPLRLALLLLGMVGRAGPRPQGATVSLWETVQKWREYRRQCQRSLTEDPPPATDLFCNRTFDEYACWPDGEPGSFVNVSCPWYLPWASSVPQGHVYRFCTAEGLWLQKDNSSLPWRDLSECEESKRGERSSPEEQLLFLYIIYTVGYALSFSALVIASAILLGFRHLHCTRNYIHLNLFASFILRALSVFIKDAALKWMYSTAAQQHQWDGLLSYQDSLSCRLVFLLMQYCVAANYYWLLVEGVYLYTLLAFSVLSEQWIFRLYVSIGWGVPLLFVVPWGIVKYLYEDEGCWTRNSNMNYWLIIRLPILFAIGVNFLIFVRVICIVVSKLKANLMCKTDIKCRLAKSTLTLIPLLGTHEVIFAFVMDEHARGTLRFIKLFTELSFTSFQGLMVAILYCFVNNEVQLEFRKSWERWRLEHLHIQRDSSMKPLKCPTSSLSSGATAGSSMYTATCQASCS

Potency, active:
CCOC(=O)c1c(Nc2ccc(C)cc2)nnc(-c2ccccc2)c1-c1ccccc1 11.2 µM
COc1ccc(NC(=O)CN(Cc2ccccc2)S(=O)(=O)c2ccc(C)cc2)cc1Cl 10 µM

Potency, inconclusive:
CCN(Cc1ccccc1)C(=O)c1nc(-c2cccc(F)c2)n2c1CCCCC2 17.8 µM [inhibitor, single point]
O=C(NC(=S)Nc1cc(-c2nc3ccccc3[nH]2)ccc1Cl)c1ccc2c(c1)OCO2 3.16 µM [inhibitor, partial curve, poor fit]
Cc1cc(C)c(CSc2nnc(C)n3c2cc2occc23)c(C)c1 20 µM [inhibitor, single point]
O=C1NC(Cc2ccc(O)cc2)c2nc3ccc(F)cc3c(=O)n2-c2cc3ccccc3cc21 (stereo not given) 3.55 µM [inhibitor, partial curve]
O=C(CSc1nnc(-c2ccccn2)n1Cc1ccccc1)Nc1ccc2c(c1)OCO2 0.447 µM [inhibitor, full curve, poor fit]
COc1cc(NC(=O)c2noc3c2CSc2ccccc2-3)cc(OC)c1OC 3.55 µM [inhibitor, partial curve]
COc1ccc(C(CC(=O)Nc2ccccc2OC)n2cccc2)cc1 (stereo not given) 11.2 µM [inhibitor, single point]
CC(=O)c1cccc(NC(=O)C2(c3ccccc3)CC2(Cl)Cl)c1 (stereo not given) 15.8 µM [inhibitor, single point]
Cc1sc2nc(CN3CCCC3)nc(N3CCN(S(=O)(=O)c4cccs4)CC3)c2c1C 15.8 µM [inhibitor, single point]
Cc1ccccc1NCc1ccc([N+](=O)[O-])s1 2.82 µM [inhibitor, single point]
O=S(=O)(c1ccc(Cl)cc1)N1CCN(Cc2cccnc2)CC1 10 µM [inhibitor, partial curve]
Cc1ccc(NC(=O)c2cccc(NC(=O)/C=C/c3ccco3)c2)cc1C 20 µM [inhibitor, single point]
CCOC(=O)N1CCC(N2C(=O)c3ccccc3C2Nc2ccccc2)CC1 (stereo not given) 28.2 µM [inhibitor, single point]
O=C(CN(Cc1ccc(Cl)cc1)C(=O)CN1C(=O)COc2ccccc21)NC1CCCC1 12.6 µM [inhibitor, single point]
CC1CC(C)CN(S(=O)(=O)c2ccc(C(=O)Nc3nnc(-c4cccs4)o3)cc2)C1 (stereo not given) 8.91 µM [inhibitor, partial curve]
O=C(Nc1ccc(F)c(Cl)c1)C1Cc2c(-c3ccccc3Oc3ccccc3)ccnc2O1 (stereo not given) 3.55 µM [inhibitor, partial curve, poor fit]
C=CCNc1nc(N2CCCCC2)c(C#N)c2c1CN(Cc1ccccc1)CC2 1.58 µM [inhibitor, full curve, poor fit]
COC(=O)c1ccc(CN2CCCC(C(=O)Nc3cccc(-n4cccn4)c3)C2)cc1 (stereo not given) 6.31 µM [inhibitor, partial curve, poor fit]
CCSc1ncc(Cl)c(C(=O)Nc2ccccc2)n1 10 µM [inhibitor, partial curve]
O=C1CC(c2cccc([N+](=O)[O-])c2)c2c(ccc3ccccc23)N1 (stereo not given) 8.91 µM [inhibitor, partial curve, poor fit]
Cc1onc(-c2ccccc2Cl)c1C(=O)O/N=C(\N)c1cccc([N+](=O)[O-])c1 10 µM [inhibitor, partial curve, poor fit]
CC1=C(C(=O)OC2CCCCCC2)C(c2c(F)cccc2Cl)CC(=O)N1 (stereo not given) 28.2 µM [inhibitor, single point]
CC/C(=N\NC(=O)c1ccccc1Cl)c1ccc(Br)s1 3.98 µM [inhibitor, full curve, poor fit]
CSCc1cc(N2CCOCC2)nc(SCc2ccc(Cl)cc2Cl)n1 28.2 µM [inhibitor, single point]
CC1(C)CC(NC(=O)COc2ccc3ccccc3c2)CC(C)(C)N1 10 µM [inhibitor, partial curve]
CN1CCN(CCC(=O)N2c3ccccc3Sc3ccc(Cl)cc32)CC1 10 µM [inhibitor, partial curve]
O=C(CN1CCN(c2cccc(Cl)c2)CC1)NCc1ccccc1 11.2 µM [inhibitor, partial curve, poor fit]
O=C(NCC(c1cccnc1)N1CCN(c2ccc(F)cc2)CC1)c1ccc2c(c1)OCO2 (stereo not given) 11.2 µM [inhibitor, partial curve, poor fit]
Cc1ccc(NC2CCCN(C(=O)C3CCCC3)C2)cc1C (stereo not given) 12.6 µM [inhibitor, single point]
CCOC(=O)CC(NC(=O)Cc1ccccc1)c1ccccc1Cl (stereo not given) 28.2 µM [inhibitor, single point]
CCC1(C)NC(=O)N(CC(=O)N2N=C(c3ccccc3)CC2c2ccc(OC)cc2)C1=O (stereo not given) 11.2 µM [inhibitor, partial curve, poor fit]
CCC(=O)Nc1ccc2oc(-c3cccc(C)c3)nc2c1 11.2 µM [inhibitor, single point]

Potency, inactive:
Cc1ccn2c(=O)cc(CSc3nnc(NC(=O)c4ccccc4Cl)s3)nc2c1
O=C(NC1CCCCC1)c1cc(Nc2cccc(C(F)(F)F)c2)nc2ccccc12
COC(=O)CCSc1nc2sc3c(c2c(=O)n1Cc1ccccc1)CCC(C(C)(C)C)C3 (stereo not given)
CN1CCN(C(=O)c2ccc(-c3cc4nc(NCc5cccnc5)n(C)c(=O)c4s3)cc2)CC1
CCC/C(=N\NC(=O)c1ccc(CSc2nncn2C)cc1)c1ccccc1
COC(=O)c1ccc(CNC(=O)C(C)N=C2NS(=O)(=O)c3ccccc32)cc1 (stereo not given)
